In all, about 410,000 compounds went through this assay and about 7,200 (1.8%) were called active. Inconclusive means that the source gave no clear call. Such entries were picked first, then a sample of the others. The call rests on the fitted dose curve; in most records, active means well fitted activation curve with a large enough effect; inconclusive means small, poorly fitted or top-dose-only effect, or another doubt; inactive means no such curve, though single readings can be large or run the other way. Potencies of inconclusive entries are left out as doubtful fits.
Assay: qHTS of TDP-43 Inhibitors; further: nearly all actives have a fitted effect of over 50% in size; on growth rescue (activation): % of control where 0% means no effect
Settings: TDP-43 expressing yeast growth rescue, BacTiter-Glo, 24 h; growth rescue (activation): at 46.1 µM (top of the series) unless noted
In short: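 In this qHTS, compounds that restore growth of yeast expressing TDP-43 appear as activators. Cells (OD600=0.02, galactose medium, raffinose-pregrown) are incubated with compound 24 hr at 30 deg C and growth is quantified by BacTiter-Glo.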
Potency means the concentration at half of the fitted maximal effect; tags describe the fitted curve by direction and shape.

Row | SMILES | Potency | growth rescue (activation)
1 | CCOCN(C(=O)Cn1cnc2cc(C)c(C)cc21)c1c(C)cccc1CC | inconclusive [activator, partial curve, poor fit] | –
2 | COc1ccc(NC(=O)CN(C)C(=O)c2cc(-c3ccc(Cl)cc3)nc3ccccc23)cc1 | – | inconclusive: 51.3% [activator]
3 | CCc1ccccc1NC(=O)c1cc(-c2ccc3c(c2)OCO3)on1 | inactive | –
4 | COc1ccc(N/C=C/C(=O)c2cc(OC)c(OC)c(OC)c2)cc1 | inconclusive [activator, single point] | –
5 | O=C(NC1CCCC1)c1noc2c1CCCCC2 | inconclusive [activator, single point] | –
6 | COC(=O)c1sc2cccc(F)c2c1S(=O)(=O)N1CCN(c2ccc(C)cc2C)CC1 | inactive | –
7 | COc1ccccc1N1CCN(c2cc(C)nc3nc(-c4ccc(Cl)cc4)nn23)CC1 | inconclusive [activator, full curve] | –
8 | COc1ccc(OC)c(S(=O)(=O)NCCc2csc3nc(-c4ccccc4)nn23)c1 | inactive | –
9 | Cc1cccc(N2CCN(C(=O)c3ccc4c(c3)c(C)c(C)n4C)CC2C)c1 (centres undefined) | active: 15.8 µM | –
10 | C[C@H](CO)N1C[C@H](C)[C@@H](CN(C)C(=O)CCCN(C)C)OCc2cn(nn2)CCCC1=O | inconclusive [activator, partial curve] | –
11 | O=C(NC(=S)NNC(=O)[C@H]1C[C@@H]1c1ccccc1)c1ccc(F)cc1 | active: 10 µM | –
12 | O=S(=O)(c1ccc(NC(=S)N/N=C/c2ccc(N3CCOCC3)cc2)cc1)N1CCOCC1 | inactive | –
13 | CCOc1cc(C=NN=C2c3ccccc3-c3ccccc32)ccc1O | active: 14.1 µM | –
14 | C=CCNC(=O)CN1N=C(c2ccc(C)cc2)CCC1=O | inactive | –
15 | Cc1ccc(-n2c(SCC(N)=O)nc3c([nH]c4ccccc43)c2=O)cc1 | inconclusive [activator, full curve, poor fit] | –
16 | Cc1oc(=O)c(NC(=O)c2ccc(Cl)cc2)cc1C(=O)c1ccccc1 | – | inconclusive: -86.1% [activator]
17 | Cc1ccc(Cn2c(C)c(CNC(C)c3ccccc3)c(C(=O)O)c2C)cc1 (centres undefined) | inactive | –
18 | O=C(c1cc([N+](=O)[O-])ccc1Cl)N1CCN(c2ccc(F)cc2)CC1 | inconclusive [activator, partial curve] | –
19 | CC(C)c1ccc2oc(=O)cc(CN3CCN(c4ccc(F)cc4)CC3)c2c1 | active: 14.1 µM | –
20 | Cc1nn(Cc2ccccc2Cl)c(C)c1C(=O)N1CCN(c2ccccc2)CC1 | inconclusive [activator, single point] | –
21 | COc1ccc(C2=CC(=O)C[C@H](c3ccc4c(c3)OCO4)C2)cc1 | active: 11.2 µM | –
22 | COc1ccc(S(=O)(=O)N2CCC3(CC2)CC(=O)c2ccccc2O3)cc1 | inactive | –

Row | SMILES | Potency | growth rescue (activation)
23 | Cc1ccc(N2CCN(c3nc4c(S(=O)(=O)c5ccc(C)c(C)c5)nnn4c4ccccc34)CC2)c(C)c1 | inactive | –
24 | CCCCN1CC(=O)N2[C@H]3c4cc(Cl)ccc4OC[C@@H]3[C@H](c3ccccc3)[C@]2(C)C1=O | inconclusive [activator, single point] | –
25 | CCOC(=O)c1c(NC(=O)COc2ccc(Cl)cc2C)sc(C(C)=O)c1C | inactive | –
26 | COc1nc(Nc2cccc(F)c2)nc(OC)n1 | inconclusive [activator, partial curve] | –
27 | O=C(c1ccccc1)c1ccc(-c2ccc(O)cc2)cc1 | inconclusive [activator, partial curve] | –
28 | CC1(C(=O)Nc2ccc3c(c2)OCCO3)CN(S(C)(=O)=O)CC(=O)N1Cc1cccc(C(F)(F)F)c1 (centres undefined) | active: 22.4 µM | –
29 | Cc1ccc(CNC(=O)c2ccc[nH]2)cc1 | inconclusive [activator, single point] | –
30 | Cc1cccc(CCNC(=O)CCc2nc(-c3ccccc3F)no2)c1 | inconclusive [activator, partial curve] | –
31 | COc1ccc(NC(=O)c2ccc(COc3ccccc3)o2)cc1 | inconclusive [activator, full curve, poor fit] | –
32 | Cc1cc(C)cc(N(C)S(=O)(=O)c2nnc(NC(=O)C(C)C)s2)c1 | inconclusive [activator, single point] | –
33 | CCOc1ccc(-c2nnn(CCC(=O)O)n2)cc1OC | inconclusive [activator, partial curve] | –
34 | COc1ccc(C(=O)Nc2ccc(N3CCOCC3)c(C(F)(F)F)c2)cc1OC | active: 20 µM | –
35 | CCC(=O)N1CCN(c2nnc(-c3ccccc3)c3ccccc23)CC1 | inconclusive [activator, single point] | –
36 | CC(C)(C(=O)N1CCC1(C)C(=O)NS(=O)(=O)c1ccc(Br)cc1)c1ccccc1 (centres undefined) | inconclusive [activator, partial curve] | –
37 | COc1cccc(C(=O)Nc2cc(NC(=O)c3ccco3)ccc2OC)c1 | inconclusive [activator, partial curve] | –
38 | Cc1ccc(Cc2c(-c3ccc(C#N)cc3)nc3ccc(Br)cn23)cc1 | inconclusive [activator, single point] | –
39 | COc1ccccc1-c1nnc(SCC(=O)c2ccc(F)cc2)n1-c1ccccc1 | inconclusive [activator, partial curve] | –
40 | CCOc1ccc(S(=O)(=O)Nc2ccc(F)cc2)c(C)c1C | inconclusive [activator, single point] | –
41 | COC(=O)N1C(=O)[C@](Cc2ccccc2)(c2ccccc2)N1C(=O)OC | active: 17.8 µM | –
42 | O=C(CCn1c(=O)oc2ccccc21)N1CCN(c2ccc(F)cc2)CC1 | inconclusive [activator, partial curve] | –
43 | O=C(/C=C/c1cccc(F)c1)c1ccc(N2CCOCC2)cc1 | inconclusive [activator, single point] | –
44 | COc1cc([N+](=O)[O-])cc(/C=N/NC(=O)CSc2ccccn2)c1O | inconclusive [activator, partial curve] | –

— PubChem BioAssay AID652104 (National Center for Advancing Translational Sciences (NCATS), 2013)
